Results on 70 compounds are retold here after PubChem BioAssay AID488969 (Vanderbilt High Throughput Screening Facility, 2010).

The full ranking holds about 110,000 compounds; the median of “z-score” is about -0.1, and the highest 2% start at about 2. The list shows a part of the results. Activity calls are given as the source filed them.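 How the source made its calls: active means z-score in the third read window above 3 or below -3; inactive means the rest.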

In this assay the target is Metabotropic glutamate receptor 8 (Rattus norvegicus) (UniProt P70579). In words: mGluR8 Gi/Go-coupled signaling modulation – cell-based, rat, thallium flux, HTS, primary screen (AID 488969). Particulars: HEK293 rat mGluR8, GIRK (G protein-gated inwardly rectifying potassium channel) thallium flux, FluoZin2; at 10 µM; stronger effect = higher value; submaximal glutamate (EC20) added with thallium.
UniProt P70579, sequence (P70579 whole entry, looked up): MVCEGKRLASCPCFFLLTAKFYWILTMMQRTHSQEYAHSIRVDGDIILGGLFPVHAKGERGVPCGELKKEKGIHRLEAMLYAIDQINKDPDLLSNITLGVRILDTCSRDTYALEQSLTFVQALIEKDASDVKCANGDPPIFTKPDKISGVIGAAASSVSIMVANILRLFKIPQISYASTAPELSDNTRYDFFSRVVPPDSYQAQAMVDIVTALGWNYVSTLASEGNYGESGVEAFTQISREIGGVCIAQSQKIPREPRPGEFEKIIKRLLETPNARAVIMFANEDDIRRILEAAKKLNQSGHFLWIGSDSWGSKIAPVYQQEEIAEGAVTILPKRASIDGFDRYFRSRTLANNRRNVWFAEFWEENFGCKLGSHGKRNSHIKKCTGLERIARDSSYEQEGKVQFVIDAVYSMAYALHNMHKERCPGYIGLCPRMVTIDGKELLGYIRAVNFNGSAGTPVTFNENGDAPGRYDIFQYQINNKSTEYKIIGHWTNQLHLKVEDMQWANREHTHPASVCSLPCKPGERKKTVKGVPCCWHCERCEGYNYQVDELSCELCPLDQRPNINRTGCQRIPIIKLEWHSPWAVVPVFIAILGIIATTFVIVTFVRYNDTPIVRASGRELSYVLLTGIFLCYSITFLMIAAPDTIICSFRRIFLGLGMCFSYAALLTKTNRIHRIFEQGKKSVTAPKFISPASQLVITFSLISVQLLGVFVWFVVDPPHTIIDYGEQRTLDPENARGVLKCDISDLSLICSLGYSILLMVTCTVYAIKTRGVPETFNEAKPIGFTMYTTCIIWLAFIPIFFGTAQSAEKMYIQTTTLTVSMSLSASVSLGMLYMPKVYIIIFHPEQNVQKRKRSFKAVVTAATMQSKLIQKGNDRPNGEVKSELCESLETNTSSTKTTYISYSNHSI
`C=C(C)C1CC=C(C)/C(=N/NC(=O)COc2cccc3ccccc23)C1` (stereo not given) had a z-score of 0.0808.

Compound `C=CCn1c(SC/C=C/c2ccccc2)nnc1-c1sc(N)nc1C` registered a z-score of -0.233.

As for `O=C(CCCSc1ccccc1)Nc1nc(-c2ccco2)c(-c2ccco2)s1`, the z-score is -0.198.

As to `Cc1n[nH]c(C)c1N1C(=O)c2cccc3cc(Br)cc(c23)C1=O`, the z-score turned out to be 0.154.

In turn, `COc1cccc(C(=O)OCCN(C)C(C)(C)C)c1` gave a z-score of -0.29.

Take `CCSc1nnc(NC(=O)c2nn(C(C)C)c(=O)c3ccccc23)s1`: the z-score is active: -3.38.

`Cc1cccc(Nc2nc(N)nc(CSC(=S)N3CCOCC3)n2)c1`: the z-score was -0.0162.

Take `CCC(O)c1cc2c(cc1NC(=O)c1cccs1)OCCO2` (stereo not given): the z-score is 0.423.

On to `CC1=NN2C(=N)/C(=C\c3ccc(SCc4ccccc4)o3)C(=O)N=C2S1`, for which the z-score was -0.21.

In the case of `Cc1ccc(C)c(NC(=O)CCC(=O)N/N=C/c2ccc[nH]2)c1`, the z-score was -0.47.

Turning to `Cc1cc(Br)c(NC(=O)CCl)c(Br)c1`, the z-score turned out to be 0.0161.

In turn, `CN(C)CCCn1c(N)c(C#N)c2nc(C#N)c(C#N)nc21` registered a z-score of 0.0606.

`CCC(C)(C(=O)NC1CCCCC1)N(Cc1ccco1)C(=O)Cc1cccs1` (stereo not given): the z-score was -0.493.

As to `CC1N(C)c2cccc3cccc(c23)N1C`, the z-score was -0.243.

As for `CC(C)Cn1c(=O)c2ccccc2n2c(SCC(=O)N3c4ccccc4CC3C)nnc12` (stereo not given), the z-score is -0.53.

In turn, `Cc1ccc(NC(=O)C2(c3ccccc3)CC2(Cl)Cl)cc1C` (stereo not given) yielded a z-score of -0.293.

With `Cc1ccccc1CCN(C(=O)Cn1nnc2ccccc21)C(C(=O)NCC1CCCO1)c1nc2ccccc2n1C` (stereo not given), the z-score was -0.147.

`CCOC(=O)/C(C(N)=NCC(C)C)=C(/O)c1ccccc1` displayed a z-score of -0.583.

As to `Nc1nc2n(n1)C(c1cccc(Br)c1)CC(c1ccccc1)N2` (stereo not given), the z-score is 0.751.

Turning to `O=C(NCc1ccccn1)c1cn(CCc2ccccc2)nn1`, the z-score is -0.818.

In turn, `COc1ccc(Cl)cc1NC(=O)CNc1ccc(F)cc1C` returned a z-score of -0.449.

The compound `O=C(N/N=C/c1ccc(F)cc1)c1cc(-c2ccco2)nc2ccccc12` displayed a z-score of -0.0949.

With `COc1ccc2occ(C(=O)c3ccc(N=C(C)N(C)C)cc3)c2c1`, the z-score is active: 3.46.

`O=C(Nc1cccc(C(F)(F)F)c1)c1cc(-c2ccc(F)cc2)on1`: the z-score is -0.388.

`COc1ccc(CN2CCN(C(=O)CC(C)C)CC2)c2ccccc12` returned a z-score of 0.562.

`COC(=O)Nc1cccn(Cc2c(Cl)cccc2Cl)c1=O`: the z-score was -0.0369.

`COc1ccc2[nH]cc(C(=O)CN(C)CCc3ccc(OC)c(OC)c3)c2c1`: the z-score was found to be 0.489.

`CCCCOc1ccc(Br)cc1CSC(=N)N` came in with a z-score of 0.623.

Regarding `CC(C)(C)NS(=O)(=O)c1ccc(CCC(=O)NCc2ccc3c(c2)OCO3)cc1`, the z-score is 0.241.

The compound `COc1ccc(-c2nnc(-c3ccc(OCC(C)C)cc3)o2)cc1` came in with a z-score of 0.807.

Consider `O=[N+]([O-])c1ccc(Cl)cc1NCCCN1CCOCC1`, for which the z-score was -0.718.

In the case of `COc1cc(-c2cc(C(=O)NN3CCN(C)CC3)c3ccccc3n2)cc(OC)c1OC`, the z-score is -0.264.

For the compound `CC(C)CCNC(=O)C1CCC(=O)N1C(C)C` (stereo not given), the z-score is -0.118.

The compound `O=c1[nH]c(CN2CCN(CCO)CC2)nc2ccccc12` showed a z-score of 0.00285.

`CCOC(=O)c1nnc(-c2ccccc2)nc1Sc1ccccc1Cl` gave a z-score of -0.115.

As to `O=C(c1cccc(S(=O)(=O)N2CCOCC2)c1)N1CCCc2ccccc21`, the z-score was -0.828.

In turn, `CSc1nnc(-c2ccccc2N=Cc2c(C)[nH]n(-c3ccc4ccccc4c3)c2=O)c(=O)[nH]1` showed a z-score of 0.358.

In turn, `CC1CCc2c(C(=O)Nc3ccc(OC(F)(F)F)cc3)csc2C1` (stereo not given) returned a z-score of -0.225.

On to `NNC(=O)CNC(=O)c1cccc(Br)c1`, for which the z-score stood at 0.117.

`CCN(C(=O)CSc1ncccc1C(=O)Oc1cccc([N+](=O)[O-])c1)c1cccc(C)c1` came in with a z-score of -0.431.

Regarding `O=C(O)C1CC=CCC1C(=O)NC12CC3CC(CC(C3)C1)C2` (stereo not given), the z-score worked out at 0.0352.

For the compound `NC(=O)c1ccc(NC(=O)COC(=O)c2c3c(nc4ccccc24)/C(=C\c2cccs2)CCC3)cc1`, the z-score was -0.38.

Take `O=[N+]([O-])c1ccc(NCCCNS(=O)(=O)c2ccc(Cl)cc2)c(Cl)c1`: the z-score is -0.0607.

`Cc1cc(C)n(-c2nc3sc4c(c3c3nnc(SC(C)C)n23)CC(C)(C)OC4)n1`: the z-score is -1.58.

Compound `COC(=O)C(C#N)C(c1cccnc1)c1c(C)[nH][nH]c1=O` (stereo not given) registered a z-score of 0.0437.

`O=C(O)CCCCCN1C(=O)/C(=C/c2ccncc2)SC1=S` displayed a z-score of -0.0629.

For `CC(=O)N1CCN(c2ccc(NCc3ccc4c(c3)OCO4)cc2)CC1`, the z-score is -0.235.

For `O=C(CSc1nc(O)c(Cc2ccccc2)c(=O)[nH]1)Nc1ccccc1`, the z-score was -0.392.

As to `COc1ccccc1C(=O)Nn1c(-c2cccs2)nc2ccccc2c1=O`, the z-score was determined as 0.229.

For `CN1CCc2c(c3c(n2C)CCN(C)[C@H]3c2ccccc2F)[C@@H]1c1ccccc1F`, the z-score is -0.147.

In turn, `Cc1ccc(-n2c(-c3ccncc3)nnc2-c2cccs2)cc1` showed a z-score of -0.207.

`CCOC(=O)N1CCN(CC(O)COc2ccccc2C(C)C)CC1` (stereo not given) gave a z-score of 0.377.

On to `CC(NC(=O)CCSc1nc(-c2ccc3c(c2)OCO3)cc(C(F)(F)F)n1)c1ccccc1` (stereo not given), for which the z-score is -0.673.

With `c1ccc(-n2cnc3cc(NCc4ccccn4)ccc32)cc1`, the z-score came out at 0.062.

The compound `CN(C(=O)COC(=O)c1cc(Br)c(Br)s1)C1CCS(=O)(=O)C1` (stereo not given) came in with a z-score of -0.419.

The compound `O=C(c1cnc2n(c1=O)CCS2)N1CCN(c2ccccc2F)CC1` displayed a z-score of -0.0161.

As for `Cc1cc(=O)[nH]c(SC/C=C/c2ccccc2)n1`, the z-score is -0.481.

`CSc1nc2sc3c(c2c2nnnn12)CCCC3` yielded a z-score of 0.38.

`O=C(N/N=C/c1cn(-c2cccs2)nc1-c1ccccc1)c1ccccc1Br` showed a z-score of -0.355.

`CCOc1ccc(N2C(=O)CC(Sc3nc4ccc(OCC)cc4s3)C2=O)cc1` (stereo not given) showed a z-score of -0.136.

As for `COCCNCC(=O)Nc1ccccc1Sc1ccccc1`, the z-score is -0.304.

`Cc1noc2ncnc(Sc3ccc(Cl)cc3)c12` displayed a z-score of 0.302.

`COc1c([N+](=O)[O-])c(=O)oc2ccccc12` came in with a z-score of -0.321.

With `O=C(COC(=O)[C@@H]1CCCN1S(=O)(=O)c1ccc(Cl)cc1)NCC(F)(F)F`, the z-score was -0.281.

For the compound `CS(=O)(=O)N(CC(=O)N1CCCC1)c1ccc(OCc2ccccc2)cc1`, the z-score amounted to 0.216.

In turn, `O=S(=O)(Nc1cccc(-c2cn3cccnc3n2)c1)c1ccccc1` gave a z-score of -0.202.

`COc1ccc(-c2cc(=O)oc3c(C)c(OC(=O)c4cccs4)ccc23)cc1` came in with a z-score of 0.444.

In turn, `Cc1ccc(N2C(=O)CSC2c2c(F)cccc2Cl)cc1` (stereo not given) had a z-score of 0.0105.

For the compound `COc1nc(C)nc2c1sc1nc3c(cc12)COC(C)(C)C3`, the z-score was found to be 1.74.

Compound `CCN1CCN(C(=O)c2cnn3c(C(F)F)cc(-c4ccc(C)cc4)nc23)CC1` came in with a z-score of -0.204.
